From the supplement of paper PMC3334620
The full ranking holds about 33,000 sequences; the median of “E-score (-0.5 to 0.5)” is about -0.017, and the highest 2% start at about 0.3. The list shows a part of the results.

These sequences were tested against T1, Sut1 (UniProt P53032) (assay: PBM E-score (8-mer binding enrichment) (E-score (-0.5 to 0.5)); higher = stronger / more preferred TF binding; most listed sequences are background and not binding sites). Conditions: protein concentration: 200 nM; construct: GST-full length.
T1 sequence: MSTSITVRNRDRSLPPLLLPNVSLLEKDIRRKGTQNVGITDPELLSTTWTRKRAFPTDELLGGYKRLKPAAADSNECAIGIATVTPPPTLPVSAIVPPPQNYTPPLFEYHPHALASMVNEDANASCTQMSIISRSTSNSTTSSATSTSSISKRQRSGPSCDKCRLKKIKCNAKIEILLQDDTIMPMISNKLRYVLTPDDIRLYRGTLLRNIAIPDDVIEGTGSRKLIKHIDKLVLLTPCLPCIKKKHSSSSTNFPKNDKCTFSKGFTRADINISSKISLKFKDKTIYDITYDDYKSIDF
Method: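 Universal 'all 10-mer' protein binding microarrays (Agilent AMADID 015681) probed with GST-tagged S. cerevisiae TFs (full-length or DBD) made by in vitro transcription/translation (PURExpress), about 100-200 nM. Bound TF was detected with fluorescent anti-GST. Each ungapped 8-mer (which stands for itself and its reverse complement) is scored by the PBM enrichment score (E-score), a modified Wilcoxon-Mann-Whitney statistic from -0.5 to +0.5, computed with the Universal PBM Analysis Suite. Scale: above 0.35 generally sequence-specific binding.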

Sequence | PBM E-score
GTAAATAA | 0.243
TAGTTTCA | 0.194
GACAGTCA | -0.121
ACGGTACG | 0.0279
TACTTGCA | 0.118
GCCCGTCC | -0.202
ACTTCTAA | 0.208
GTGGCATA | -0.212
AGGTTCTG | -0.218
AGTCGAAA | 0.115
CCTACATA | -0.0743
GGGTCTGA | -0.172
AGCGATTG | -0.0825
ACTGAGAG | -0.145
GAGAAGAA | 0.183
TGCCAGAA | -0.112
GTACCCGA | -0.24
CTCTCCGA | 0.257
ACACTGCT | -0.293
CATTTTGG | -0.0637
GATACACA | 0.0383
AGAAATAG | 0.1
CTAAATCA | 0.111
GTATTCAA | 0.187
ACGGAGCG | 0.2

Sequence | PBM E-score
AACAGAAT | 0.0169
ATGCAGTA | 0.0258
ACTTTAAT | 0.201
CTTCTAGA | 0.0189
ACCGTCCC | -0.187
GAAAGAGA | 0.0565
AACTTCCG | 0.294
ATCCGCTG | -0.18
AAGCTTTG | 0.0179
AAGATAGC | 0.157
TCAGGTCA | -0.0551
ATGTGAGC | -0.245
AACGTTCG | -0.132
CGTCCCGC | -0.213
ACTCGTGA | -0.128
ATATTGGC | -0.0325
CACCTGCG | -0.0338
CTCGGCAG | 0.0615
AAGTGCGT | -0.0255
CCGGGTGA | 0.0118
GCATAAAA | 0.19
AAGCACCT | -0.0904
AAGCTACA | -0.00205
CATCACGC | 0.128
ATGCTTAA | 0.159

Sequence | PBM E-score
CATTCCTC | 0.0201
GACCCTTA | -0.0167
AAGATTAA | 0.241
GAAACCTA | -0.113
AGCGGCCC | -0.299
AAATGCGT | 0.077
TCATGTAA | 0.213
ATTTGTAC | 0.0799
CATAGACA | 0.0146
GAGTCTGA | -0.171
ATGTTGCC | -0.105
GCGTTCAC | -0.0118
CAAGCCTG | -0.229
ACTACAGT | -0.0141
ACTTCTCC | 0.192
ATAGAGGG | -0.0434
ATACCTAT | 0.0494
CGAGAGAC | -0.208
CAATCCGC | -0.0291
AATGCAAG | -0.0298
CGTCTCAC | -0.115
CGTAGGTC | -0.205
TGGTAAAA | 0.232
ACTAAGAT | 0.204
AACATCAA | 0.28

Sequence | PBM E-score
GCGAGTGA | -0.0991
CTATTTAC | 0.233
AATCACGC | 0.0758
ATTGGGCG | -0.12
GAGCTGAA | 0.01
ATATATTG | 0.186
CTGGTATA | -0.194
TATTGCGA | 0.087
ACCGAGTA | -0.0936
GGCTTATA | -0.0706
TCCCGCCA | -0.161
CACCCAGG | -0.182
TCCAAGAA | 0.104
AAGCTAAG | -0.223
CCACGGAG | 0.365
TTCTCAAA | 0.183
CCAGTTTC | -0.173
GCTCTGCA | -0.301
AAGCTTAA | 0.0913
CACCACGG | -0.106
GGTCGTCA | -0.157
AACTACCA | 0.203
CTAAACCC | 0.0437
CAAACTTA | 0.196
ATTTTGGG | 0.0303

Sequence | PBM E-score
CACATACA | -0.00783
CCTAAACC | 0.00969
CTAGATCC | -0.105
ACGGTGAA | 0.111
GTCGTCAC | -0.0815
GCCTGTGA | -0.192
GGTCTCAA | -0.06
ATTATTAG | 0.144
CCCAACAA | 0.0113
CGACACAG | -0.194
AGCATGCT | -0.3
ACCGCCGG | 0.00111
GAATTAAA | 0.145
GTTGTTCA | 0.0942
TAGTACTA | 0.0139
CTACGTTA | 0.0635
AGCACTTA | -0.117
ATTAGGTC | 0.159
CTGTGTTC | -0.0512
AACGCATA | -0.0271
ACCGACGG | -0.0055
CGATGGCA | -0.136
CGCAATAG | -0.00083
TCCGAAGA | 0.39
CAATACCC | -0.0401

Sequence | PBM E-score
GTACAGTA | 0.023
AACAGTGA | -0.0221
TTACGCAA | 0.0762
CAGAAAGG | -0.0393
CCCCCGCA | -0.181
AGTCACAG | -0.22
GCGTCCAA | -0.144
GTGATAAA | 0.0786
CTTCAATA | 0.0945
TAGCACAA | -0.0323
TGGCGAAA | -0.0435
CGGAGAAC | 0.33
CAGGGAAG | -0.285
TACGCTCA | -0.0128
GAATTTGA | 0.144
GAGAATCC | 0.0458
TAAGACTA | -0.0422
CGTCTCAG | -0.148
AAAGATCG | 0.0203
ACCTCTCC | -0.114
CTTAATAC | 0.0573
GAAGGGAA | -0.158
AACTCGAG | -0.128
CATAGCTC | -0.163
CGAGCGTA | -0.0805

Sequence | PBM E-score
ACAGTGGA | 0.0793
CAGATTAC | 0.0158
ACGATGTA | -0.0164
CAGGGTCC | -0.163
CGATGATA | 0.163
CCCAATAC | 0.0578
ACCATAAA | 0.175
ATTTACCC | 0.0895
GGAGTGTA | 0.15
TAGACGAA | 0.0446
AGAGTGCA | -0.126
GAGTGTCA | 0.0947
AAGAACCC | -0.0332
AGGAACGG | 0.0393
CATAACAG | 0.00057
CTTAAAGA | 0.111
AACTTGTA | -0.00608
CCCAAGCG | -0.226
GCCCACCA | -0.222
CTTTGGTA | -0.0369
ATTAACAC | 0.302
GAGATCTA | -0.0723
